± gives the standard deviation of the averaged measurements. The list shows a part of the results.
test system: PfAP2-G AP2 domain (GST-tagged); assay: gcPBM binding intensity (ln(normalized median fluorescence intensity)); higher = stronger DNA binding
Method in brief: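 After 1 h on an Agilent 4 × 180k array of primer-extended double-stranded 36-bp intergenic genomic probes and negative controls, bound GST-tagged P. falciparum DNA-binding domains were detected with Alexa488 anti-GST antibody and scanned at 488 nm. The domains had been expressed in E. coli, and binding took place in 1× PBS with 1% milk, 0.2 mg/ml BSA, 0.5% salmon testes DNA and 0.03% Triton X-100. Binding intensity is the highest Masliner-normalised natural-log median intensity across replicate spots of either probe orientation.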

| Sequence | gcPBM binding intensity (ln) |
| --- | --- |
| GAAAAAAAAAAAAAAAAAAAAAAATTCATTTTTTTT [XGTACX_negctrl_site54] | 9.37 ± 0.32 |
| TATACAAAATAACTAGCACACATATGTATAAACATA [CACACA_site9236] | 10.2 |
| AAAATAAAAAATATAACACACAATAAATATATATAT [CACACA_site1926] | 9.815 ± 0.035 |
| TAAATTATATTATGCACACTTAAAAATATATTTAAC [CACACA_site3512] | 10.07 ± 0.085 |
| ATATGTATTAAGTGTACACATATAATGTATTTTGTT [CACACA_site4177] | 11.6 ± 0.92 |
| TCATAATGAAAACAAGCACACATACATAAAATAAAA [CACACA_site9069] | 10.1 ± 0.064 |
| TTATTTACCATCTCTACACACAAAAATTGATGTAGA [CACACA_site2811] | 10.1 ± 0.19 |
| CGTATGAAACATATATGTACTTATAAAAATATAACC [XGTACX_site7539] | 11.3 ± 0.86 |
| AAATCACCTTAAGAACGTACAAACAGAAAAAAATTA [XGTACX_site4623] | 11.1 ± 0.69 |
| TTTATTATATTTATATGTACTTATATAATATATGCA [XGTACX_site1906] | 11.3 ± 0.86 |
| TTATAAATATAATATTGTACAAAATTTTAACATGTC [XGTACX_site5259] | 10.9 ± 0.59 |
| CTTATGTGTATAAGTAGTACTAAATTAAAATAATAT [XGTACX_site2681] | 11.4 ± 0.88 |
| ATATGTAATAATAAATGTACGAAACATTGAACGATG [XGTACX_site1266] | 10.8 ± 0.42 |
| TTTTTATATATCACGTGTACATATTTATTTTTACTC [XGTACX_site8049] | 11.5 ± 0.81 |
| GAATCATCCAAAATTGCATGCAAGGAAGAAGAAAAA [TGCATGCA_site764] | 9.9 ± 0.25 |
| CATATATACATATATACACACATATATATATATATA [CACACA_site645] | 10.1 ± 0.48 |
| ATATATTTATAATACACATGCAATGATATAATATAT [TGCATGCA_site20] | 9.895 ± 0.078 |
| TTTTTTTTTCTGTGAGTGCATGTAATAAAATAAATT [GTGCAC_site9740] | 10.3 ± 0.35 |
| GTAAGAAAGAAAGGAAGTACGTAAGAAAGTAAGAAC [XGTACX_site1239] | 11.2 ± 0.62 |
| GTGTGGTTACAGACACGAACACATTTTTTAAATATT [CACACA_negctrl_site83] | 10.6 ± 0.37 |
| TATATATATTATATAGTGCATTGAAGAAGGGGATTT | 9.85 ± 0.24 |
| TTTATATGTTTAAAATGTACATGTGGTAAAAATTTT [XGTACX_site5907] | 11.2 ± 0.61 |
| GGGAGGATATTACACAGTACCCAGAAAATCTACGGA [XGTACX_site2551] | 11 ± 0.68 |

| Sequence | gcPBM binding intensity (ln) |
| --- | --- |
| CATATTTGTTGACACACACACATATTTATATAAATA [CACACA_site7648] | 10.5 ± 0.33 |
| ATATATAAACTGAAGGGTACAATGAAAAAAGAACTT [XGTACX_site7219] | 11.2 ± 0.88 |
| TAGGATTTTTAGTTTATTGTAACTATTATTTTATTT [CACACA_negctrl_site829] | 9.87 ± 0.099 |
| CCCATTATTGTTGGGGGTACAATTTTGAATATATAT [XGTACX_site2227] | 11.5 ± 0.84 |
| TATTCCTTATTATAATTCTTAAATAAAAAAAAAAAA [TGCATGCA_negctrl_site45] | 9.79 ± 0.41 |
| AAATATATGAATAAATGTACGAAATGAATGGATGAA [XGTACX_site7108] | 10.7 ± 0.21 |
| AAACATGTATTTTATTGTACACATTCATAAATCACA [XGTACX_site1420] | 11.5 ± 0.93 |
| TTATAATCTTATATATGTACATATATATATTATTAT [XGTACX_site7780] | 11.2 ± 0.86 |
| TTAATTAGAAATCATACACACATATATATATATATA [CACACA_site173] | 10.2 ± 0.58 |
| AAAAAAAAAAAAAAACTTACGATTTTAAAAAGATGG [GTGCAC_negctrl_site291] | 9.66 ± 0.57 |
| GAAATGTACAAATACGTACACACATATATATATATA [CACACA_site1541] | 11.6 ± 0.99 |
| GCAAAATATTTAAAATAATATATGTGTATATTTTTA [GTGCAC_negctrl_site149] | 9.705 ± 0.035 |
| TTTATATTGTTTTATTGTACATATATATTTATACAT [XGTACX_site6821] | 11.1 ± 0.64 |
| CATTCAAACAAAAAAAGTACTCATCACATAATATAT [XGTACX_site1251] | 11.4 ± 0.95 |
| AGACCTTTAATTTGTGTGCACATAATTAGTGTACAT [GTGCAC_site9434] | 11.5 ± 0.96 |
| ATTAAAAAAAAAAAAAGTACTTATAATTATACTCGT [XGTACX_site4852] | 11.3 ± 0.8 |
| GGAAGATGAAAAATAAAGCATGTGCTGTACAAACGA [CACACA_negctrl_site1625] | 10.8 ± 0.37 |
| AAATATTTATATGTTACACACTGTTGATAATTTTCT [CACACA_site1347] | 9.97 ± 0.057 |
| TTATATTATATATATGTGCACATTTTTAAACTTGGA | 10.4 ± 0.28 |
| ACAAATAAAAATATTACACACACTATTATATTGATA [CACACA_site1494] | 9.88 ± 0.085 |
| ACTTATTTCGATATGTGTACTTAATATATATATTTA [XGTACX_site6616] | 11.4 ± 0.83 |
| ATTTTTGTAATTATTTGTACACATTTATTTATGTGT [XGTACX_site1864] | 11.5 ± 0.73 |
| TAAAAATATAAATTTTGTACGTAAAAAATGGTTCTT [XGTACX_site1506] | 11.5 ± 0.93 |

| Sequence | gcPBM binding intensity (ln) |
| --- | --- |
| AAATAAAATAAAAACATGCACACTTTATTTTTTTTA [CACACA_site2800] | 9.91 ± 0.11 |
| AGAAGTTTAAAAAGCACACAAAAAAAAAAAAAAAGA [CACACA_site3309] | 10.1 ± 0.18 |
| AAAATCGTGTTCTGAATACACACTAATACAAAGTTG [CACACA_site3985] | 10.6 ± 0.37 |
| AAAAATACCTGAATATGTACATATGATCAATGGGCC [XGTACX_site887] | 10.9 ± 0.52 |
| ATTCATATATATTATACACACACATATATAAATATA [CACACA_site8228] | 9.995 ± 0.049 |
| TGACCGTTTTAAGAGTGTACAAAAAAAAAAAAAAAA [XGTACX_site4141] | 11 ± 0.83 |
| TATTCTATATAATAATGTACGTGATTTAAATTTTCA [XGTACX_site6650] | 11.2 ± 0.79 |
| TAACATATTAATAACATATTTATAATATATTAATAA [TGCATGCA_negctrl_site243] | 9.51 ± 0.18 |
| AAAAAAAAAAAAAAGGAACACACAAGTAACAATAAA [CACACA_site8792] | 10.4 ± 0.32 |
| ATTCACATACATTACTTACACACCATATTAATATAT [CACACA_site459] | 10.29 ± 0.021 |
| TAAAAAATAAGATATACACACATATATATATATATA [CACACA_site2324] | 9.91 ± 0.4 |
| AATTATACTTCCTTCACACAGTTACATCATATATTA [CACACA_site5942] | 10.2 ± 0.2 |
| TATTTTGAAAAAGTTGCACACAAAATTTAAAAAAAA [CACACA_site8470] | 10.3 ± 0.3 |
| CATTTAAATTATAAGTGTACACGATCATATTTCATC [XGTACX_site349] | 11.6 ± 0.72 |
| ATAATGATATATTATAAACACACAAAGATGAATATA [CACACA_site8914] | 9.91 ± 0.14 |
| AAACAAAGAAAGAACACACATACACAATATACCTAC [CACACA_site2835] | 10.11 ± 0.057 |
| ATATATGTGTATGTATGTACTCATTTTTGTATATAT [XGTACX_site490] | 11.6 ± 1 |
| TTATATATTTATATTTGTACGTATAAATTTTTTTTT [XGTACX_site2833] | 11.5 ± 0.81 |
| GATGGAAGGTGAAAGCGTACTTATTATAGTAATATA [XGTACX_site303] | 11.1 ± 0.75 |
| AGGTACTTTTTTAAAACACACATATAATATATACAC [CACACA_site1065] | 11.2 ± 0.85 |
| TGTAATAATCTTACATGTACATACATATATTATATA [XGTACX_site4012] | 11 ± 0.47 |
| CCAACATTTTTTAGAAGTACATTTTTATATTTATTA [XGTACX_site5179] | 11.3 ± 0.83 |
| AAATAAAAACATAACAGTACAGTTAACATTTTTATA [XGTACX_site3479] | 10.7 ± 0.52 |

| Sequence | gcPBM binding intensity (ln) |
| --- | --- |
| TATATATATATATATGTACACACATATATACCTTTC [CACACA_site8854] | 11.3 ± 0.71 |
| TATATAATATATATAGTGCATAAGTTCAAAAGAATA [GTGCAC_site9805] | 10.1 ± 0.14 |
| GCATATTTTATAATTTTACACACCATATAAAATAAT [CACACA_site8904] | 10.12 ± 0.042 |
| TACATATTTTTTATGTGTACATATTTTTTATGTGTA [XGTACX_site443] | 11.4 ± 0.76 |
| ACAATCCTAACGACATGTACAAATATATATATTTTT [XGTACX_site7335] | 10.7 ± 0.42 |
| TACATTCATGTGTATTGTACAAACTATTTTATAATA [XGTACX_site7744] | 10.8 ± 0.45 |
| TTATATGCATAAAAACGTACAAAAATGTATTCATGT [XGTACX_site2215] | 11.2 ± 0.83 |
| TTTTTTTTTTTTTCAAGTACATAACTTACCCCTTTT [XGTACX_site6207] | 11.2 ± 0.96 |
| AAACGATTACTGTGTACACACATAGTTATAAACATA [CACACA_site5195] | 11.5 ± 0.72 |
| GAATGTTAACGTTGCACACAAAAAAAAAGTATACAT [CACACA_site2415] | 10.4 ± 0.26 |
| TTACATAATATATGTACACACGCAAATACTTAGAAT [CACACA_site320] | 11.5 ± 0.86 |
| GTTATAGAAGCATTCACACACACACCCACATACACA [CACACA_site1465] | 10.5 ± 0.61 |
| TTTTTTAATAATAGGAAAATGAATATTATATCGAAT [TGCATGCA_negctrl_site543] | 9.61 ± 0.26 |
| AGGATATGCAGACACACACACATATATATATATATA [CACACA_site2201] | 10.4 ± 0.64 |
| ATATATATATTCCACACACACACAAAAAAAAAAAAA [CACACA_site3648] | 10.1 ± 0.71 |
| TTTTTTTTTTTTTTTGCACACAGGGTGTAGGACAAG [CACACA_site2842] | 11 ± 1 |
| TTATAATATCTATATATCTTTTACATTTATAAGTTT [CACACA_negctrl_site1473] | 9.58 ± 0.38 |
| TATAATAATATTAACACACGTACAAAAGCAAACAAC [CACACA_site3494] | 11.4 ± 0.79 |
| CATTTGATAAGATACACACACAAGGAAAAAAATAAA [CACACA_site350] | 10.4 ± 0.22 |
| TGCAGTCTGGAGAAAAGTACATAGTATCTGGTATCT [XGTACX_site2545] | 11.3 ± 0.98 |

— the supplement of paper PMC11417369
